Screen size: about 2,700 compounds; about 160 (5.9%) showed an effect of 50% or more. The list shows a part of the results.
Biological target: Nonstructural protein 3 (Zika virus) (UniProt A0A024AXB9)
[1] = PRVABC59, Concentration 50.0 uM, Number of replicates 1.0
[2] = PRVABC59, Concentration 15.0 uM, Number of replicates 1.0

Chain of UniProt A0A024AXB9 (A0A024AXB9 as listed by the source): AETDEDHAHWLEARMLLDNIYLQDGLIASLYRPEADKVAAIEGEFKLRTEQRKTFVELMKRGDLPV

COc1ncc(NC(=O)C2CCN(c3ccc(C=O)cc3)CC2)cc1Br
inhibition [1]: 14.4%

CNC(=O)c1cc(Cl)ccc1NS(=O)(=O)c1cccc(S(N)(=O)=O)c1
inhibition (PRVABC59, Concentration 49.5 uM, Number of replicates 2.0, Standard deviation 1.9770878431028747 %): 2.91%
inhibition (PRVABC59, Concentration 99.01 uM, Number of replicates 2.0, Standard deviation 3.7643425715900136 %): 6.13%
inhibition (PRVABC59, Concentration 198.0 uM, Number of replicates 2.0, Standard deviation 0.1353062194106457 %): 8.68%

Cc1cc(CO)c2cccc(Cc3cccc(NC(=O)C(=O)c4ccco4)c3)c2n1
inhibition (PRVABC59, Concentration 49.95 uM, Number of replicates 2.0, Standard deviation 0.11706202880203795 %): -4.83%
inhibition (PRVABC59, Concentration 99.9 uM, Number of replicates 2.0, Standard deviation 0.9670358368472974 %): -5.47%

O=C(c1cc(Cl)ccc1NS(=O)(=O)c1ccc(Oc2ccccc2Cl)cc1)N1CCC(c2nc3ccccc3s2)CC1
inhibition [2]: 30.2%

O=Cc1ccc(N2CCC(C(=O)Nc3ccc(F)cc3Br)CC2)cc1
inhibition [1]: 20.8%

N#Cc1ccc(C[C@H](NC(=O)c2ccccc2)C(=O)N2CCC[C@@H](CN)C2)cc1
inhibition (PRVABC59, Concentration 49.5 uM, Number of replicates 2.0, Standard deviation 1.3811454822062357 %): -2.13%
inhibition (PRVABC59, Concentration 99.01 uM, Number of replicates 2.0, Standard deviation 1.0154897083567558 %): -2.19%
inhibition (PRVABC59, Concentration 198.0 uM, Number of replicates 2.0, Standard deviation 0.42527358688620087 %): -2.27%

CNC(=O)c1cc(Cl)ccc1NS(=O)(=O)c1[nH]ncc1C(=O)OC
inhibition (PRVABC59, Concentration 49.5 uM, Number of replicates 2.0, Standard deviation 0.699448193049936 %): -2.72%
inhibition (PRVABC59, Concentration 99.01 uM, Number of replicates 2.0, Standard deviation 0.3092514894243207 %): -1.35%
inhibition (PRVABC59, Concentration 198.0 uM, Number of replicates 2.0, Standard deviation 0.6268051493620144 %): -0.933%

Cn1cc(NC(=O)c2ccccc2C(F)(F)F)c(-c2cccc3cc[nH]c23)n1
inhibition (PRVABC59, Concentration 49.5 uM, Number of replicates 2.0, Standard deviation 2.122471500433021 %): -1.02%
inhibition (PRVABC59, Concentration 99.01 uM, Number of replicates 2.0, Standard deviation 2.8581416433973104 %): 1.63%
inhibition (PRVABC59, Concentration 198.0 uM, Number of replicates 2.0, Standard deviation 2.3832837433043164 %): 4.85%

CCOc1ccccc1CNC(=O)c1cc(Cl)ccc1NS(=O)(=O)c1ccc(Oc2ccccc2Cl)cc1
inhibition [2]: 18.6%

N=C(N)NCCC[C@H](NC(=O)c1nccs1)C(=O)N[C@@H](CCCCN)C(=O)N[C@@H](C(N)=O)c1ccc(OCc2ccc(C(F)(F)F)cc2)cc1
inhibition [2]: 91.8%
inhibition (PRVABC59, Concentration 49.5 uM, Number of replicates 2.0, Standard deviation 0.021859715861266255 %): 94.6%
inhibition (PRVABC59, Concentration 49.5 uM, Number of replicates 2.0, Standard deviation 0.024233426369399808 %): 96.9%
inhibition (PRVABC59, Concentration 49.5 uM, Number of replicates 2.0, Standard deviation 0.10948739718766008 %): 93.8%
inhibition (PRVABC59, Concentration 49.5 uM, Number of replicates 2.0, Standard deviation 0.1218738502028297 %): 97.5%
inhibition (PRVABC59, Concentration 49.5 uM, Number of replicates 2.0, Standard deviation 0.12395624169405596 %): 92.6%
inhibition (PRVABC59, Concentration 49.5 uM, Number of replicates 2.0, Standard deviation 0.12648640130386196 %): 91.3%
inhibition (PRVABC59, Concentration 49.5 uM, Number of replicates 2.0, Standard deviation 0.127991549557883 %): 97.2%
inhibition (PRVABC59, Concentration 49.5 uM, Number of replicates 2.0, Standard deviation 0.13878114277667186 %): 95.3%
inhibition (PRVABC59, Concentration 49.5 uM, Number of replicates 2.0, Standard deviation 0.18792773988825517 %): 89.4%
inhibition (PRVABC59, Concentration 49.5 uM, Number of replicates 2.0, Standard deviation 0.2282484497468692 %): 91.2%
inhibition (PRVABC59, Concentration 49.5 uM, Number of replicates 2.0, Standard deviation 0.23805618998274827 %): 97%
inhibition (PRVABC59, Concentration 49.5 uM, Number of replicates 2.0, Standard deviation 0.25515230043791925 %): 95.5%
inhibition (PRVABC59, Concentration 49.5 uM, Number of replicates 2.0, Standard deviation 0.3144519047683829 %): 85.9%
inhibition (PRVABC59, Concentration 49.5 uM, Number of replicates 2.0, Standard deviation 0.8044343068166325 %): 87.1%
inhibition (PRVABC59, Concentration 49.5 uM, Number of replicates 2.0, Standard deviation 1.112040214687694 %): 90.3%
inhibition (PRVABC59, Concentration 49.5 uM, Number of replicates 2.0, Standard deviation 1.1256998397026805 %): 90.4%
inhibition (PRVABC59, Concentration 49.5 uM, Number of replicates 2.0, Standard deviation 1.7230548786677078 %): 84.5%
inhibition (PRVABC59, Concentration 49.5 uM, Number of replicates 2.0, Standard deviation 1.876040520916915 %): 90.3%
inhibition (PRVABC59, Concentration 49.8 uM, Number of replicates 2.0, Standard deviation 1.8581405857669444 %): 97.9%
inhibition (PRVABC59, Concentration 49.95 uM, Number of replicates 2.0, Standard deviation 2.309253478244507 %): 87.4%
inhibition (PRVABC59, Concentration 50.0 uM, Number of replicates 2.0, Standard deviation 0.36743959706585505 %): 88.7%
inhibition (PRVABC59, Concentration 99.01 uM, Number of replicates 2.0, Standard deviation 0.0 %): 93.4%
inhibition (PRVABC59, Concentration 99.01 uM, Number of replicates 2.0, Standard deviation 0.012046580828777775 %): 94.9%
inhibition (PRVABC59, Concentration 99.01 uM, Number of replicates 2.0, Standard deviation 0.02911571730090177 %): 93.7%
inhibition (PRVABC59, Concentration 99.01 uM, Number of replicates 2.0, Standard deviation 0.06378807510947981 %): 97.6%
inhibition (PRVABC59, Concentration 99.01 uM, Number of replicates 2.0, Standard deviation 0.067278508515758 %): 98.8%
inhibition (PRVABC59, Concentration 99.01 uM, Number of replicates 2.0, Standard deviation 0.0706826251762859 %): 98.7%
inhibition (PRVABC59, Concentration 99.01 uM, Number of replicates 2.0, Standard deviation 0.071545792633789 %): 97.3%
inhibition (PRVABC59, Concentration 99.01 uM, Number of replicates 2.0, Standard deviation 0.07721572387026257 %): 95.8%
inhibition (PRVABC59, Concentration 99.01 uM, Number of replicates 2.0, Standard deviation 0.10372575440882682 %): 99%
inhibition (PRVABC59, Concentration 99.01 uM, Number of replicates 2.0, Standard deviation 0.10948739718766008 %): 97%
inhibition (PRVABC59, Concentration 99.01 uM, Number of replicates 2.0, Standard deviation 0.11599352189858977 %): 97.7%
inhibition (PRVABC59, Concentration 99.01 uM, Number of replicates 2.0, Standard deviation 0.1471970254873272 %): 98.8%
inhibition (PRVABC59, Concentration 99.01 uM, Number of replicates 2.0, Standard deviation 0.27009049224933246 %): 94.8%
inhibition (PRVABC59, Concentration 99.01 uM, Number of replicates 2.0, Standard deviation 0.8601032130289737 %): 94.3%
inhibition (PRVABC59, Concentration 99.01 uM, Number of replicates 2.0, Standard deviation 0.9406367368140138 %): 94.2%
inhibition (PRVABC59, Concentration 99.01 uM, Number of replicates 2.0, Standard deviation 1.3348561042489029 %): 88.7%
inhibition (PRVABC59, Concentration 99.01 uM, Number of replicates 2.0, Standard deviation 1.4059433391708933 %): 94.2%
inhibition (PRVABC59, Concentration 99.01 uM, Number of replicates 2.0, Standard deviation 1.7588979073405244 %): 89.5%
inhibition (PRVABC59, Concentration 99.5 uM, Number of replicates 2.0, Standard deviation 0.12741970111728718 %): 93.3%
inhibition (PRVABC59, Concentration 99.5 uM, Number of replicates 2.0, Standard deviation 0.16892187143335857 %): 101%
inhibition (PRVABC59, Concentration 99.9 uM, Number of replicates 2.0, Standard deviation 1.5690280406728871 %): 94.6%
inhibition (PRVABC59, Concentration 100.0 uM, Number of replicates 2.0, Standard deviation 4.458993610342439 %): 98%
inhibition (PRVABC59, Concentration 198.0 uM, Number of replicates 2.0, Standard deviation 0.0026488451352126683 %): 96.7%
inhibition (PRVABC59, Concentration 198.0 uM, Number of replicates 2.0, Standard deviation 0.013907785659018856 %): 98.8%
inhibition (PRVABC59, Concentration 198.0 uM, Number of replicates 2.0, Standard deviation 0.021082865149513456 %): 97.6%
inhibition (PRVABC59, Concentration 198.0 uM, Number of replicates 2.0, Standard deviation 0.03251443916482027 %): 97.8%
inhibition (PRVABC59, Concentration 198.0 uM, Number of replicates 2.0, Standard deviation 0.03514709991020475 %): 97.2%
inhibition (PRVABC59, Concentration 198.0 uM, Number of replicates 2.0, Standard deviation 0.0599254007371534 %): 99.1%
inhibition (PRVABC59, Concentration 198.0 uM, Number of replicates 2.0, Standard deviation 0.06866497124437239 %): 99.6%
inhibition (PRVABC59, Concentration 198.0 uM, Number of replicates 2.0, Standard deviation 0.07418384817578288 %): 97.3%
inhibition (PRVABC59, Concentration 198.0 uM, Number of replicates 2.0, Standard deviation 0.0745722735316593 %): 98.9%
inhibition (PRVABC59, Concentration 198.0 uM, Number of replicates 2.0, Standard deviation 0.07483122376891023 %): 96.4%
inhibition (PRVABC59, Concentration 198.0 uM, Number of replicates 2.0, Standard deviation 0.07712401232790286 %): 99.5%
inhibition (PRVABC59, Concentration 198.0 uM, Number of replicates 2.0, Standard deviation 0.08816716098733327 %): 99.7%
inhibition (PRVABC59, Concentration 198.0 uM, Number of replicates 2.0, Standard deviation 0.09263944737652126 %): 98.7%
inhibition (PRVABC59, Concentration 198.0 uM, Number of replicates 2.0, Standard deviation 0.09449525741015294 %): 99.7%
inhibition (PRVABC59, Concentration 198.0 uM, Number of replicates 2.0, Standard deviation 0.3759148225392137 %): 97%
inhibition (PRVABC59, Concentration 198.0 uM, Number of replicates 2.0, Standard deviation 0.4983928899622956 %): 97.6%
inhibition (PRVABC59, Concentration 198.0 uM, Number of replicates 2.0, Standard deviation 0.5225777631622108 %): 97.2%
inhibition (PRVABC59, Concentration 198.0 uM, Number of replicates 2.0, Standard deviation 0.6944775623239552 %): 94.7%
inhibition (PRVABC59, Concentration 198.0 uM, Number of replicates 2.0, Standard deviation 1.5146538856468006 %): 93.1%
inhibition (PRVABC59, Concentration 200.0 uM, Number of replicates 1.0): 97.4%

Reference: ChEMBL document CHEMBL5606458, “ASAP - ZIKV NS2B-NS3 protease fluorescence single point” (2024)
